Columns and labels:
[1] = target: GABA site, GABA-A Receptor; conditions: radioligand, PDSP website; read-out: Kd for [^3H] Compound binding, GABAA (rat brain); cited from earlier work
[2] = target: BDZ site, GABA-A Receptor; assay: PDSP radioligand displacement, [^3H]Flunitrazepam; set-up: species or system rat; conditions: read-out: Binding constant Ki, BDZ site, GABA-A Receptor
[3] = target: CaV1.2 (Voltage sensitive Ca** channel (L-type)) (Homo sapiens, UniProt Q13936); assay: PDSP radioligand binding; conditions: Table 3, the 6th table r22c0; read-out: Ki, CaV1.2 (lack of affinity)
EP2 (Prostaglandin Rs) = EP2 (Prostaglandin Rs) (Homo sapiens, UniProt P43116); assay: PDSP radioligand binding; conditions: Table 3, the 6th table r12c1; read-out: Ki, EP2 (lack of affinity)
[4] = system: rats treated with cisplatin; assay: Reversal of cisplatin-induced neuropathic pain (von Frey mechanical pain threshold); assay type: in vivo, rat; conditions: cisplatin i.p. 7 mg/kg total, day 14; 50 mg/kg oral; 1 and 2 hours; FIG. 6
[5] = system: rats treated with Complete Freund's Adjuvant; assay: Reversal of CFA-induced neuropathic pain (von Frey mechanical pain threshold); assay type: in vivo, rat; conditions: 48 h after CFA; 50 mg/kg; 1 hour; DCUKA n=17, BCUKA n=6; FIG. 8
5-HT1B (Serotonin Rs) = 5-HT1B (Serotonin Rs) (Homo sapiens, UniProt P28222); assay: PDSP radioligand binding
5-HT2B (Serotonin Rs) = 5-HT2B (Serotonin Rs) (Homo sapiens, UniProt P41595); assay: PDSP radioligand binding
5-HT3 (Serotonin Rs) = target: T1, 5-HT3 (Serotonin Rs) (Homo sapiens, UniProt P46098); assay: PDSP radioligand binding
T1 sequence (P46098 24-478): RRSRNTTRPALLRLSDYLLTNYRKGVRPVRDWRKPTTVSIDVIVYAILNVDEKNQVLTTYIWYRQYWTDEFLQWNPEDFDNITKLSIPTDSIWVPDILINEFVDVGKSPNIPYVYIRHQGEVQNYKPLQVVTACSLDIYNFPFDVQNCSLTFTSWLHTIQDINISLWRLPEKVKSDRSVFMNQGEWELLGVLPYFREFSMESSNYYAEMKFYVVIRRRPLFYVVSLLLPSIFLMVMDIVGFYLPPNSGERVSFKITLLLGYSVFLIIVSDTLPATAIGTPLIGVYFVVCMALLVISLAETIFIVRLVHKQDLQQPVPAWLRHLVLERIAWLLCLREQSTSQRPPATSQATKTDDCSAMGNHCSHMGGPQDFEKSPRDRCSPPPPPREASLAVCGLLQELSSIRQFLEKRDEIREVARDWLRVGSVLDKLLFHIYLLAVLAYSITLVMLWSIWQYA

[6] = target: β1 (Adrenergic Rs (beta adrenergic)) (Homo sapiens, UniProt P08588); assay: PDSP radioligand binding
[7] = target: β2 (Adrenergic Rs (beta adrenergic)) (Homo sapiens, UniProt P07550); assay: PDSP radioligand binding
D1 (Dopamine Rs) = D1 (Dopamine Rs) (Homo sapiens, UniProt P21728); assay: PDSP radioligand binding
D2 (Dopamine Rs) = D2 (Dopamine Rs) (Homo sapiens, UniProt P14416); assay: PDSP radioligand binding
[8] = target: T2, M2 (Muscarinic Cholinergic Rs) (Homo sapiens, UniProt P08172); assay: PDSP radioligand binding
T2 sequence (P08172 1-466): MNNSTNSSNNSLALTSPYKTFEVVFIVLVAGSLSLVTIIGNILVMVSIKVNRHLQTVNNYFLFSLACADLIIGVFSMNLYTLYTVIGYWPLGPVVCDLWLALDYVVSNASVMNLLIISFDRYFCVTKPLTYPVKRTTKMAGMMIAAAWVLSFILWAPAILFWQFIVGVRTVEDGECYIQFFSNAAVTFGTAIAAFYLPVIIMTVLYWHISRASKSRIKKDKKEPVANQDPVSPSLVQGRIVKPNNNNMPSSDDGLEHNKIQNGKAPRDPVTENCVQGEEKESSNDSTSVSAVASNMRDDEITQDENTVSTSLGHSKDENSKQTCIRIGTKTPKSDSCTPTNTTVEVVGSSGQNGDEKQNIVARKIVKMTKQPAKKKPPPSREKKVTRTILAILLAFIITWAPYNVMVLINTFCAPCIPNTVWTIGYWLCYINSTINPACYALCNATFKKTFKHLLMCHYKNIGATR

[9] = target: mGluR5 (Metabotropic Glutamate Rs) (Homo sapiens, UniProt P41594); assay: PDSP radioligand binding
Serotonin Transporter = Serotonin Transporter (Homo sapiens, UniProt P31645); assay: PDSP radioligand binding
V1A (Vasopressin) = V1A (Vasopressin) (Homo sapiens, UniProt P37288); assay: PDSP radioligand binding
[10] = target: BDZ site, GABA-A Receptor; conditions: read-out: Kd for [^3H] Compound binding, GABAA/BZP (rat brain); radioligand, PDSP website; cited from earlier work
NOP = target: T3, NOP (Homo sapiens, UniProt P41146); conditions: PDSP historical reference value, [^3H]N/OFQ; cited from earlier work
T3 construct: expressed in transfected cells; host or cells: HEKT, transient
T3 sequence (P41146 whole entry): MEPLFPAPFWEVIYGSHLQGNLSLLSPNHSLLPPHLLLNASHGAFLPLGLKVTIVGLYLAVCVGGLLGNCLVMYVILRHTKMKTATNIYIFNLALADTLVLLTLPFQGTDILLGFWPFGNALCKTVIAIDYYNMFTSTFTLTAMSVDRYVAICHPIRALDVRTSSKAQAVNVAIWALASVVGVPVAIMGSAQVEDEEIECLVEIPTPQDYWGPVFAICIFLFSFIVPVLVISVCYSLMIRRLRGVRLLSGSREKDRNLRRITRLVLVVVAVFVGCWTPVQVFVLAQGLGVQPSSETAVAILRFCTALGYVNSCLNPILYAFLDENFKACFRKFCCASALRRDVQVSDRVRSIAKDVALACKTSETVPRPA

Chain of EP2 (Prostaglandin Rs) (P43116 whole entry): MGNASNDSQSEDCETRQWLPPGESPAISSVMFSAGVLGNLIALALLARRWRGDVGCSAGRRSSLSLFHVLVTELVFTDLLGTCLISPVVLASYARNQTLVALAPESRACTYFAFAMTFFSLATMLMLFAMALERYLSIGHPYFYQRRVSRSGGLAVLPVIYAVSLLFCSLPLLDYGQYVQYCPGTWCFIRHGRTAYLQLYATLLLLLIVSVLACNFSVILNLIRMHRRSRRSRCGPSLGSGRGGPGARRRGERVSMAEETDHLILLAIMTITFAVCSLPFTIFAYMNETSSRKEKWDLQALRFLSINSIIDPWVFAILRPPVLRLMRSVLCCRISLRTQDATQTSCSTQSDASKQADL
Chain of D1 (Dopamine Rs) (P21728 whole entry): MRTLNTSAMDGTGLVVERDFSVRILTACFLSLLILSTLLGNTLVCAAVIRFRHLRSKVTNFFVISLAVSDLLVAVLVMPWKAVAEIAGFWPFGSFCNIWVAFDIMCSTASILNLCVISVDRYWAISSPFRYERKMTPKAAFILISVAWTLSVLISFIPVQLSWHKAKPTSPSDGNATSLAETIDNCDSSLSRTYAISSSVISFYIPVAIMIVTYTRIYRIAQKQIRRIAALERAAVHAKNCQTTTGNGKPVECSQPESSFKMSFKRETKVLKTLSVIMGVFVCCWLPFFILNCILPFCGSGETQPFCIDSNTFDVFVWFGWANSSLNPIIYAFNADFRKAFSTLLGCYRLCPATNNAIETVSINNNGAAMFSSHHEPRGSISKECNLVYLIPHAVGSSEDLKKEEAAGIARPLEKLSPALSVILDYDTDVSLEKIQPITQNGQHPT
Chain of Serotonin Transporter (P31645 whole entry): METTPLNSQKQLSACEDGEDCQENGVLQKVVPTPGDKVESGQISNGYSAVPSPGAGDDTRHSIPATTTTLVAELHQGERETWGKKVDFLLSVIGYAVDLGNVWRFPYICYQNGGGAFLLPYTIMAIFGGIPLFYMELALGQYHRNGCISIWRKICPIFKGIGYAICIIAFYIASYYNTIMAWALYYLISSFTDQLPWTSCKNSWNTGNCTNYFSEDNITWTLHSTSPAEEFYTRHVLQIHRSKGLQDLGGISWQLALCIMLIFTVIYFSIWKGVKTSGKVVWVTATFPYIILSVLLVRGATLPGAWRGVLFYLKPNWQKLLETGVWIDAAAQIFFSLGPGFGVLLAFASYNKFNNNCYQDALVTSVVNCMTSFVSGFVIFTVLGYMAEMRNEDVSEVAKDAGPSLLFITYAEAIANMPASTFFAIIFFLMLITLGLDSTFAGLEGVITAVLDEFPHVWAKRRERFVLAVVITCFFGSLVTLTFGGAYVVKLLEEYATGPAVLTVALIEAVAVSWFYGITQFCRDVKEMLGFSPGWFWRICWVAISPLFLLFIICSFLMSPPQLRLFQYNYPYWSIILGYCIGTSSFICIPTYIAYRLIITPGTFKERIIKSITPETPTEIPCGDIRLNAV
Chain of 5-HT1B (Serotonin Rs) (P28222 whole entry): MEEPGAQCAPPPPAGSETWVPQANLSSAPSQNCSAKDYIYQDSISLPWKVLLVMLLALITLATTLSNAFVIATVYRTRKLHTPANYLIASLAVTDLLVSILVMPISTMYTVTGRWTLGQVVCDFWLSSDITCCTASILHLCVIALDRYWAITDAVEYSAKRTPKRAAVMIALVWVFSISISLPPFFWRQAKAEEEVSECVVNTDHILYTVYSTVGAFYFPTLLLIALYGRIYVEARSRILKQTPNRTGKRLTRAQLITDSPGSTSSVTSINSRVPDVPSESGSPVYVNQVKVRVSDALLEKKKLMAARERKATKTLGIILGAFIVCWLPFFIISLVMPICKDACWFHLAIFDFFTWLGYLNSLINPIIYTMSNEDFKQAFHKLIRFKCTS
Chain of D2 (Dopamine Rs) (P14416 whole entry): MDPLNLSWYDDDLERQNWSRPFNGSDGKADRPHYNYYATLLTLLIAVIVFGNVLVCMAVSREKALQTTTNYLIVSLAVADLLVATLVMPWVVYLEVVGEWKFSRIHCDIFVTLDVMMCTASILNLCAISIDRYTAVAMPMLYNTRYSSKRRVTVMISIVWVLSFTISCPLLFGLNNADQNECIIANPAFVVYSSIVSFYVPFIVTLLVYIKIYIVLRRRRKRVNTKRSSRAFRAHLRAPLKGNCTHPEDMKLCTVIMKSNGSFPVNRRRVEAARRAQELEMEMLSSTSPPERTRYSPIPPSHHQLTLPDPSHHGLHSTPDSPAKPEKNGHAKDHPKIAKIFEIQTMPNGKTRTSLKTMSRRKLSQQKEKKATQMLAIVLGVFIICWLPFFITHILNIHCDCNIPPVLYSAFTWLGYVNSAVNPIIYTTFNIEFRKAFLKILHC
Chain of 5-HT2B (Serotonin Rs) (P41595 whole entry): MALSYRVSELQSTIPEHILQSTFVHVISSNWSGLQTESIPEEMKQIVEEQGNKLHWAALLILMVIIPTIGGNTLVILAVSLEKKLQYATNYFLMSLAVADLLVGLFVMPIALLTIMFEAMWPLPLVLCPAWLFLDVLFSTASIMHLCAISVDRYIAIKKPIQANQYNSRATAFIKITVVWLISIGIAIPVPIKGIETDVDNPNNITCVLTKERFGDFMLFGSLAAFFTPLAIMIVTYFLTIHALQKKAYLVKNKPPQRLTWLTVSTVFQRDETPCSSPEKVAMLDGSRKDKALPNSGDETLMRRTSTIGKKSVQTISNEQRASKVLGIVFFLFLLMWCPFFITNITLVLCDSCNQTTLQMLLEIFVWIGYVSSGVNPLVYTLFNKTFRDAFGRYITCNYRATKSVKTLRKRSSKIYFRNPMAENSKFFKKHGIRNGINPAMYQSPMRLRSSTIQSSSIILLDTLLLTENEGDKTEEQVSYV
Chain of V1A (Vasopressin) (P37288 whole entry): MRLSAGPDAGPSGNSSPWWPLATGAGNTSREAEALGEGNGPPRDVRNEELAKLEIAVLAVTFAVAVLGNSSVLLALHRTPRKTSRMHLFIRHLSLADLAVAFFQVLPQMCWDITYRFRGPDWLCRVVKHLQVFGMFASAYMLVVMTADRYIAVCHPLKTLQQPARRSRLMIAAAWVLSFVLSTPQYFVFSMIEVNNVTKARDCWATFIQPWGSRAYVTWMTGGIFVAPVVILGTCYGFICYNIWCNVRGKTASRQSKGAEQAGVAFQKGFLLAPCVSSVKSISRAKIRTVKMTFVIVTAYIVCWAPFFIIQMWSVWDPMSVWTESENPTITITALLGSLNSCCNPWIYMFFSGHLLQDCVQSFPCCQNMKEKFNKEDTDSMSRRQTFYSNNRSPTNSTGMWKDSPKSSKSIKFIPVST
Chain of β2 (Adrenergic Rs (beta adrenergic)) (P07550 whole entry): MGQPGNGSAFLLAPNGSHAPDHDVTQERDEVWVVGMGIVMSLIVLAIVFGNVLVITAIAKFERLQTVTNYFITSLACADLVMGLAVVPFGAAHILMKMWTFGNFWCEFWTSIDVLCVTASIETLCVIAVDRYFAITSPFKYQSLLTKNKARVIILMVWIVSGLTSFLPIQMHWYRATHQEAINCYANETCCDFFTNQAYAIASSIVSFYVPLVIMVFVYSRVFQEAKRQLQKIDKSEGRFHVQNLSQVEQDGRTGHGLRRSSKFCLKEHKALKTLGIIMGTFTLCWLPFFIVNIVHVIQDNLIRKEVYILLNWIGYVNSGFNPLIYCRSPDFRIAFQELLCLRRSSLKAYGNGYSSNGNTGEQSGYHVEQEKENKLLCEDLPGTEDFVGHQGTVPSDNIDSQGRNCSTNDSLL
Chain of β1 (Adrenergic Rs (beta adrenergic)) (P08588 whole entry): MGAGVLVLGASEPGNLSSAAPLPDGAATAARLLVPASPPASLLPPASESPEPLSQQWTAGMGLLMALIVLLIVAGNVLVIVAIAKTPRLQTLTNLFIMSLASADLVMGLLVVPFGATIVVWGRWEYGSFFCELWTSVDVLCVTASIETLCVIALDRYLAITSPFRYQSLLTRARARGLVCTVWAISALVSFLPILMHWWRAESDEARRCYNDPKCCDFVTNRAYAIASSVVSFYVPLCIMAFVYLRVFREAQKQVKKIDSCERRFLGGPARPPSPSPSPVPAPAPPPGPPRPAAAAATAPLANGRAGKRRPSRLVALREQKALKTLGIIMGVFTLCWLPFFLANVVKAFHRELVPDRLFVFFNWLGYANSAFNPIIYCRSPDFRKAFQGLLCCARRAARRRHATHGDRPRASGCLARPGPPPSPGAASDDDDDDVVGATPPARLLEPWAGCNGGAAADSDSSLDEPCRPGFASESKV

Structure (SMILES): NCc1cc(=O)[nH]o1 [[^3H]Muscimol]
- Kd [1]: 0.005 µM

Structure (SMILES): CCCCN(CCCC)C(=O)Nc1cc(C(=O)O)nc2cc(Cl)cc(Cl)c12 [BCUKA, 5,7-dichloro-4-(3,3-dibutylureido)quinoline-2-carboxylic acid]
- Ki [2]: 0.63 ± 0.04 µM
- Ki [3]: > 10 µM
- Ki (EP2 (Prostaglandin Rs)): > 10 µM
- Mechanical pain threshold, ratio to baseline [4]: significantly reversed the drop in mechanical pain threshold
- Mechanical pain threshold, ratio to baseline [5]: reversed the mechanical pain threshold to a level not significantly different from baseline
- Ki (5-HT1B (Serotonin Rs)): > 10 µM
- Ki (5-HT2B (Serotonin Rs)): > 10 µM
- Ki (5-HT3 (Serotonin Rs)): > 10 µM
- Ki [6]: > 10 µM
- Ki [7]: > 10 µM
- Ki (D1 (Dopamine Rs)): > 10 µM
- Ki (D2 (Dopamine Rs)): > 10 µM
- Ki [8]: > 10 µM
- Ki [9]: > 10 µM
- Ki (Serotonin Transporter): > 10 µM
- Ki (V1A (Vasopressin)): > 10 µM

Structure (SMILES): CN1C(=O)CN=C(c2ccccc2F)c2cc([N+](=O)[O-])ccc21 [[^3H]Flunitrazepam]
- Kd [10]: 0.0005 µM

Structure (SMILES): CC(C)[C@@H](CN1CC[C@@](C)(c2cccc(O)c2)[C@@H](C)C1)NC(=O)[C@H]1Cc2ccc(O)cc2CN1 [JDTiC]
- Ki (NOP): 0.0121 ± 0.00147 µM
